Data published in PubChem BioAssay AID488969 (Vanderbilt High Throughput Screening Facility, 2010).
The full ranking holds about 110,000 compounds; the median of “z-score” is about -0.1, and the highest 2% start at about 2. The list shows a part of the results. Calls of active or inactive are those of the source.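 How the source made its calls: active means z-score in the third read window above 3 or below -3; inactive means the rest.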

What follows are compounds tested against Metabotropic glutamate receptor 8 (Rattus norvegicus) (UniProt P70579) (assay: mGluR8 Gi/Go-coupled signaling modulation – cell-based, rat, thallium flux, HTS, primary screen (AID 488969)). Details: HEK293 rat mGluR8, GIRK (G protein-gated inwardly rectifying potassium channel) thallium flux, FluoZin2; at 10 µM; stronger effect = higher value; submaximal glutamate (EC20) added with thallium.
Chain of UniProt P70579 (P70579 whole entry, looked up): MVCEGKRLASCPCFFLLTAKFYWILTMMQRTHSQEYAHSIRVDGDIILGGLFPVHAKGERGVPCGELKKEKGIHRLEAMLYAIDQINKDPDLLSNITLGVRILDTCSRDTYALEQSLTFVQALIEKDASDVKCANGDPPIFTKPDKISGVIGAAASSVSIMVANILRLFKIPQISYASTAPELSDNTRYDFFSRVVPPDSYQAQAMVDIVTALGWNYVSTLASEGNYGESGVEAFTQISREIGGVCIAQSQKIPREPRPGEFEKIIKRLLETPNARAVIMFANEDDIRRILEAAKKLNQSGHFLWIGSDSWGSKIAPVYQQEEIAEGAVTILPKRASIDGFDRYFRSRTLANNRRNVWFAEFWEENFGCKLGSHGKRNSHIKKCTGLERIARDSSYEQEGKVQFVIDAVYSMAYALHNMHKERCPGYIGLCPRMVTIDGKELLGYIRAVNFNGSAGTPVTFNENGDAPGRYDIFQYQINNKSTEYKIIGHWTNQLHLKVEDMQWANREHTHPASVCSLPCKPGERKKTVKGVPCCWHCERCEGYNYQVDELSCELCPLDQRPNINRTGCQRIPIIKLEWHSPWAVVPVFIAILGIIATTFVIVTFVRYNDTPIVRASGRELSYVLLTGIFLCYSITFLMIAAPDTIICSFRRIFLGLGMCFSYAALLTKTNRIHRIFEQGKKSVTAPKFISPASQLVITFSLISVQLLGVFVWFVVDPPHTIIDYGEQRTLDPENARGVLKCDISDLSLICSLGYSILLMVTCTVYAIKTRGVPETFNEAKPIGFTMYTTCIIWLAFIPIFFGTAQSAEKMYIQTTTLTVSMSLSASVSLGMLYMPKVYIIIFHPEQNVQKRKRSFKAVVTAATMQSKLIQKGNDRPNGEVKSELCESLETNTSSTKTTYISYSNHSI

In order of rising z-score:
1. O=C(NCCN1CCN(C(=O)Nc2ccccc2)CC1)Nc1ccccc1  -2.82
2. O=[N+]([O-])c1cc(S(=O)(=O)Nc2cccc(C(F)(F)F)c2)ccc1-n1nnc2ccccc21  -2.37
3. COCCn1c(SCC(=O)Nc2ncc(C)s2)nc2sc3c(c2c1=O)CCC3  -2.11
4. CCCCN1C(=O)C(O)=C(C(C)=O)C1c1ccccc1 (centres undefined)  -1.99
5. CCCc1cc(=O)[nH]c(SCc2cc(=O)oc3c(C)c(C)ccc23)n1  -1.49
6. CN(C)S(=O)(=O)c1ccc(S(=O)(=O)NC2CCOC(C)(C)C2)cc1 (centres undefined)  -1.16
7. CN(C(=O)CC(NC(=O)c1ccccc1)(c1ccccc1)c1ccccc1)c1ccccc1  -0.934
8. Cc1nc2sc(C(c3ccco3)N3CCN(c4ccccc4F)CC3)c(O)n2n1 (centres undefined)  -0.809
9. Cc1cc(C)nc(SCc2nnc(SCC(=O)Nc3nc(-c4ccccc4)cs3)n2C)n1  -0.738
10. O=C(CSc1nc(-c2ccco2)cc(C(F)(F)F)n1)N1CCc2ccccc2C1  -0.714
11. COc1ccc(/C=C/C(=O)c2ccc(NC(=O)c3cccs3)cc2)cc1OC  -0.7
12. Cc1ccc(S(=O)(=O)c2c(N)n(NC(=O)c3ccccc3C)c3nc4ccccc4nc23)cc1  -0.679
13. O=C(COC(=O)c1cc(-c2cccc3ccccc23)nc2ccccc12)NC1CCS(=O)(=O)C1 (centres undefined)  -0.675
14. CCCCNC(=O)c1cccc2c(=O)c(C)c(-c3ccccc3)oc12  -0.618
15. O=C(c1cc(Br)c(Br)s1)N1CCN(C/C=C/c2ccccc2)CC1  -0.553
16. O=S(=O)(/N=C(\c1ccc(Cl)cc1)N1CCOCC1)c1ccccc1  -0.45
17. CSc1cccc(NC(=O)CN(C)S(=O)(=O)c2ccc(F)cc2)c1  -0.437
18. COc1ccc(CCN2C(=O)C(Oc3ccccc3C)C2c2ccc3c(c2)OCO3)cc1OC (centres undefined)  -0.433
19. COc1ccc(N2CCN(C(=O)c3cccc(N4C(=O)C5CC=CC(C)C5C4=O)c3)CC2)cc1 (centres undefined)  -0.43
20. CCOC(=O)C1CCCN(c2nc(C)nc3c2oc2ccccc23)C1 (centres undefined)  -0.412
21. Cc1ccnc(NC(=O)c2cccc(NS(=O)(=O)c3ccccc3C)c2)c1  -0.409
22. COc1ccc2[nH]c(C)c(CCNc3ccc(C(F)(F)F)cc3[N+](=O)[O-])c2c1  -0.383
23. O=C(NC1CCCCCC1)c1ccc(N2CCCC2=O)cc1  -0.367
24. O=c1[nH]c(SCCOc2ccccc2)nc2ccccc12  -0.359
25. CC(=O)c1ccc(C(C)(C)c2ccc(C(C)=O)s2)s1  -0.351
26. O=C(Nc1ccon1)c1cccc(S(=O)(=O)N2CCCCCC2)c1  -0.324
27. CCOC(=O)c1c(-c2ccccc2)nc2ccc(Cl)cn12  -0.321
28. CCC(C)C(=O)Nc1cc(C(=O)OC)ccc1C(=O)OC (centres undefined)  -0.319
29. N#C/C(=C\c1cn(-c2ccccc2)nc1-c1cc2ccccc2o1)c1nc2ccccc2[nH]1  -0.302
30. COc1ccc(CC(=O)OCc2cc3cccc(C)c3[nH]c2=O)cc1  -0.297
31. COc1cc(/C=N/NC(=O)c2csc3c2CCCC3)cc(OC)c1O  -0.296
32. CC(C)[C@H](NS(=O)(=O)c1ccccc1)C(=O)OCC(=O)N1N=C(c2ccc(Cl)cc2)CC1c1ccco1 (some centres undefined)  -0.27
33. Cc1c(Cl)cccc1NC(=S)NN1CCOCC1  -0.264
34. CCc1cccc(C)c1NC(=O)Cn1c(NCCO)nc2ccccc21  -0.249
35. CC(C)(C)SCCNS(=O)(=O)c1ccccc1  -0.219
36. C=CCn1c(COc2ccc(F)cc2)nnc1SCC(=O)N1CC(=O)Nc2ccccc21  -0.202
37. COc1ccc(C(CC(=O)Nc2cc(OC)cc(OC)c2)n2cccc2)cc1 (centres undefined)  -0.195
38. Cc1ccc(NC(=O)CC2C(=O)N(Cc3ccccc3)C(=S)N2NC(=O)c2ccccc2)c(C)c1 (centres undefined)  -0.193
39. Cc1cc(C)nc(SCC(=O)N/N=C\C(Br)=C\c2ccccc2)n1  -0.184
40. Cc1ccc(N2/C(=N/c3nc(C)cc(C)n3)NC(=O)CC2C(=O)O)cc1 (centres undefined)  -0.179
41. CC(C)=CCCC1=CCC(/C(C)=N/NC(N)=O)CC1 (centres undefined)  -0.178
42. CCOc1ccc2c(c1)-c1c(ssc1=S)C(C)(C)N2C(=O)CSC1=NCCS1  -0.153
43. CCCNS(=O)(=O)c1ccc(CCC(=O)Nc2cc(Cl)ccc2Oc2ccccc2)cc1  -0.151
44. O=C(c1ccccc1)n1ccc(-c2cnc(-c3ccccc3)s2)n1  -0.145
45. Cc1cccc(C)c1NC(=O)C(NC(=O)CN1C(=O)c2ccccc2C1=O)c1ccccc1 (centres undefined)  -0.142
46. Cc1ccc(OCCn2c(Br)nc3c2c(=O)n(C)c(=O)n3C)cc1  -0.14
47. O=C(N/N=C/c1cccc(F)c1)NC1CCCCC1  -0.14
48. N#Cc1ccc(C(=O)Nc2ccc(N3CCN(C(=O)c4ccco4)CC3)cc2)c(F)c1  -0.135
49. CCOC(=O)C1=C(C)N=C2SC(C(=O)OC)=CC(=O)N2C1c1cccc(OC)c1 (centres undefined)  -0.132
50. COc1ccc(S(=O)(=O)N2CCN(CCC(=O)Nc3ccccc3F)CC2)cc1  -0.124
51. CCOc1ccccc1NC(=O)C1CCCN(C(=O)NCc2ccccc2)C1 (centres undefined)  -0.122
52. CCOC(=O)c1nc2ccccc2s1  -0.121
53. COc1ccc(N(CC(=O)Nc2ccc(C)cn2)S(=O)(=O)c2c(C)nn(C)c2C)cc1  -0.119
54. Cc1ccc(-c2nn(-c3ccccc3)cc2C(=O)Nc2ccc(C)c(S(=O)(=O)N3CCOCC3)c2)cc1  -0.104
55. CC(C)Cn1c(O)c(/C=C2\C=NN=C2c2ccccc2)sc1=S  -0.103
56. C/C(=N\Nc1cc(Cl)nc(C)n1)c1ccccc1  -0.103
57. COCCn1c(-c2ccccc2F)n[nH]c1=S  -0.0994
58. COc1cc([N+](=O)[O-])ccc1NC(=O)C[n+]1cccc(C)c1  -0.0934
59. CC1=C/C(=N\NC(=O)c2ccccc2)CC1  -0.0871
60. Clc1ccc(CSCCc2ccncc2)cc1  -0.0832
61. CCOC(=O)c1c(C)[nH]c(C(=O)OCCOc2ccccc2C)c1C  -0.0787
62. CC(C)NC(=O)/C(=C\c1cccc([N+](=O)[O-])c1)NC(=O)c1ccccc1  -0.0665
63. Oc1[nH]c2ccccc2c1N=Nc1ccc(C(F)(F)F)cn1  -0.0662
64. COc1cc(CC(=O)OCC(=O)Nc2cc(S(=O)(=O)N3CCCC3)ccc2Cl)cc(OC)c1OC  -0.06
65. CCOC1Cc2ccccc2N(C(N)=O)c2ccccc21 (centres undefined)  -0.0561
66. CC(=O)Nc1ccc(S(=O)(=O)N=S(C)C)cc1  -0.0545
67. C1=C2C[N+]3(CCCC3)CC2Cc2ccc3ccccc3c21 (centres undefined)  -0.0544
68. c1cnc(SCCCOc2ccc3ccccc3c2)nc1  -0.054
69. O=C(c1ccccc1F)N1CCN(c2ncccn2)CC1  -0.0494
70. CCO/C=N/c1c(C#N)c(CC#N)nn1-c1ccccc1  -0.0375
71. O=C(Nc1ccc2nc(-c3ccc4nc[nH]c4c3)[nH]c2c1)c1cccs1  -0.0282
72. Cn1c(C(=O)O)c(CC(=O)Nc2ccc3c(c2)OCCO3)c2ccccc21  -0.0244
73. CCOc1ccc(OCCN2C(=O)NC(Cc3c[nH]c4ccccc34)C2=O)cc1 (centres undefined)  -0.00423
74. N#Cc1c(SCc2cccc(Cl)c2)sc(C(=O)c2ccccc2)c1N  -0.00374
75. CCOc1ccc(OCC)c(NC(=O)CN2CCN(c3cccc(C)c3)C(C)C2)c1 (centres undefined)  -0.000428
76. CC1CCCCN1C(=S)NCCc1ccccc1 (centres undefined)  0.0194
77. O=C(CNC(=O)c1cc2ccccc2o1)NCc1cccs1  0.0265
78. CN(C)c1ccc(/C=C/c2ccc3ccccc3[n+]2C)cc1  0.041
79. O=C(CSc1nnc(CN2CCOCC2)n1-c1ccccc1)N1CCc2ccccc21  0.0622
80. CN(C(=O)CSc1nnc2ccccn12)C1CCS(=O)(=O)C1 (centres undefined)  0.0961
81. Cc1cccc(NC(=O)NC(C)C(c2cccs2)N2CCOCC2)c1 (centres undefined)  0.122
82. Cc1cc(C)c(C#N)c(SCC(O)CS(=O)(=O)Cc2ccccc2)n1 (centres undefined)  0.126
83. COC(=O)Nc1ccc(S(=O)(=O)N2CCCCC2)cc1  0.127
84. CC(/C=N/N1CCN(c2ccccc2)CC1)=C\c1ccccc1  0.136
85. Cc1ccccc1C(=O)N1CCC(C(=O)Nc2ccc3c(c2)OCCO3)CC1  0.144
86. Cc1nnsc1C(=O)Nc1cccc(Cl)c1Cl  0.148
87. CC(C)c1cc(C(F)(F)F)n2nc(C(=O)O)cc2n1  0.207
88. CCCCCCn1c(C(C)O)nc2ccccc21 (centres undefined)  0.247
89. CCCOc1ccc(N2C(=O)C3ON(c4ccccc4)C(c4ccc(O)c(OC)c4)C3C2=O)cc1 (centres undefined)  0.27
90. O=C(NCc1ccco1)c1ccc(=O)oc1  0.28
91. C=CCNCCCCOc1ccccc1-c1ccccc1  0.293
92. CCCCNC(=S)NNC(=O)c1csc2c1CCC(C)C2 (centres undefined)  0.319
93. COc1cccc2c1OC1(C)CC2/C(=C(\C)O)C(=O)N1 (centres undefined)  0.343
94. O=c1cc(CNCCCO)c2ccccc2[nH]1  0.351
95. Cc1cc(C(=O)CN2C(=O)c3ccccc3C2=O)c(C)n1Cc1cccs1  0.433
96. CCOC(=O)c1ccc(Nc2cc(C)nc(C)c2C(=O)OCC)cc1  0.455
97. CCc1cc2cc3c(cc2nc1SCC(=O)Nc1nccs1)OCO3  0.464
98. CN(c1ccccc1C(=O)Nc1cccc(C(F)(F)F)c1)S(C)(=O)=O  0.471
99. COc1ccc[nH]c1=O  0.516
100. Cc1cccc(C(=O)N=c2c(C#N)cc3c(=O)n4cccc(C)c4nc3n2Cc2ccco2)c1  0.568
101. CC1(C)CC(=O)C(C2C3=C(CC(C)(C)CC3=O)Oc3ccccc32)=C(O)C1 (centres undefined)  0.639
102. Cn1c(=O)c2c(nc(CN3CCC(C(N)=O)CC3)n2Cc2ccccc2F)n(C)c1=O  0.724
103. CC(=O)NCCc1ccc(S(=O)(=O)Nc2cccnc2)cc1  0.754
104. CC1(C)CC(=O)/C(=C(\O)c2ccccc2)C(=NCCc2ccccc2)C1  0.802
105. COc1ccc(NC(=O)CC2C(=O)N(c3ccc(Cl)cc3)C(=S)N2CCc2ccccn2)cc1 (centres undefined)  0.904
106. COc1ccc(N=C2CCCN2CC(N)=O)cc1  1.1
107. Cc1cccn2cc(-c3ccc(F)cc3)nc12  1.36
108. O=C(c1ccco1)n1nc(-c2ccccc2)nc1NCc1ccco1  1.5

For `O=C(Nn1c(C2CCCCC2)nc2ccccc2c1=O)c1ccc([N+](=O)[O-])cc1Cl`, the z-score was active: -3.19.
